Measurements: patent US20230135471A1 (INTEGRATED DNA TECHNOLOGIES, published 2023)

Key:
[1] = target: MBP tagged 53BP1 fragment (a.a. 1484-1603); test: BLI, KA (M-1), log axis
[2] = target: MBP tagged 53BP1 fragment (a.a. 1484-1603); test: BLI, fold change Ka of Ubv/Ka of CM1
[3] = target: MBP tagged 53BP1 fragment (a.a. 1484-1603); test: BLI, 1 µM 53BP1 fragment
[4] = target: MBP tagged 53BP1 fragment (a.a. 1484-1603); test: BLI, 2 µM 53BP1 fragment
[5] = target: MBP tagged 53BP1 fragment (a.a. 1484-1603); test: BLI, 0.5 µM 53BP1 fragment
[6] = target: MBP tagged 53BP1 fragment (a.a. 1484-1603); test: BLI, 0.25 µM 53BP1 fragment
[7] = target: MBP tagged 53BP1 fragment (a.a. 1484-1603); test: BLI, 20 µM 53BP1 fragment
[8] = target: MBP tagged 53BP1 fragment (a.a. 1484-1603); test: BLI, 0.125 µM 53BP1 fragment
[9] = target: MBP tagged 53BP1 fragment (a.a. 1484-1603); test: BLI, 5 µM 53BP1 fragment
[10] = target: MBP tagged 53BP1 fragment (a.a. 1484-1603); test: BLI, Ubv on Ni-NTA tip, 1:1 global fit
[11] = target: MBP tagged 53BP1 fragment (a.a. 1484-1603); test: BLI, 5.13 µM 53BP1 fragment
[12] = target: MBP tagged 53BP1 fragment (a.a. 1484-1603); test: BLI, 2.05 µM 53BP1 fragment
[13] = target: MBP tagged 53BP1 fragment (a.a. 1484-1603); test: BLI, 0.128 µM 53BP1 fragment
[14] = target: MBP tagged 53BP1 fragment (a.a. 1484-1603); test: BLI, 0.5125 µM 53BP1 fragment
[15] = target: MBP tagged 53BP1 fragment (a.a. 1484-1603); test: BLI, 0.2562 µM 53BP1 fragment
[16] = target: MBP tagged 53BP1 fragment (a.a. 1484-1603); test: BLI, 1.03 µM 53BP1 fragment
[17] = target: MBP tagged 53BP1 fragment (a.a. 1484-1603); test: BLI response vs 53BP1 fragment concentration, one site-specific binding fit, R2 .99
[18] = target: MBP tagged 53BP1 fragment (a.a. 1484-1603); test: BLI, 90 s association, 1:1 global fit
[19] = target: MBP tagged 53BP1 fragment (a.a. 1484-1603); test: BLI response vs 53BP1 fragment concentration, one site-specific binding fit, R2 .97
[20] = target: MBP tagged 53BP1 fragment (a.a. 1484-1603); test: BLI, 360 s association, 1:1 global fit
[21] = target: MBP tagged 53BP1 fragment (a.a. 1484-1603); test: BLI response vs 53BP1 fragment concentration, one site-specific binding fit, R2 .98

B1: CM158-DM (designed binder)
Ubv: MHHHHHHGGSGMLIFVRMLTGKMIELEVMPSDTIEVVKAKIQDHEGIPPDQQHLAFQGTSLEDGYTLGDYNLLIDPKKMLVLRLR
notes: also called CM211
- binding result [1]: binds

B2: - T14E (CM47) (designed binder)
Ubv: MHHHHHHGGSGMLIFVRMLTGKMITLEVEPSDTIENVKAKIQDHEGIPPDQQRLAFQGKSLEDGRTLSDYNILKDPKKMPLLRLR
- binding result [2]: binds

B3: i53 K6R, His-tagged (designed binder)
chain: MHHHHHHGGSGMLIFVRTLTGKTITLEVEPSDTIENVKAKIQDKEGIPPDQQRLAFAGKSLEDGRTLSDYNILKDSKLHPLLRLR
- Response [3]: 0.171
- Response [4]: 0.275
- Response [5]: 0.0908
- Response [6]: 0.038
- Response [7]: 0.654
- Response [8]: 0.014
- Response [9]: 0.411
- Kd [10]: 3.93 µM
- koff [10]: 0.0644 s⁻¹
- kon [10]: 16400 M⁻¹ s⁻¹

B4: i53 A46Q, His-tagged (designed binder)
chain: MHHHHHHGGSGMLIFVKTLTGKTITLEVEPSDTIENVKAKIQDKEGIPPDQQRLAFQGKSLEDGRTLSDYNILKDSKLHPLLRLR
- Response [3]: 0.348
- Response [4]: 0.5
- Response [5]: 0.194
- Response [6]: 0.102
- Response [7]: 1.01
- Response [8]: 0.0512
- Response [9]: 0.7
- Kd [10]: 2.2 µM
- koff [10]: 0.0496 s⁻¹
- kon [10]: 22600 M⁻¹ s⁻¹

B5: CM13, His-tagged (designed binder)
chain: MHHHHHHGGSGMLIFVKMLTGKTIELEVEPSDTIENVKAKIQDKEGIPPDQQRLAFQGKSLEDGRTLSDYNILKDSKKHPLLRLR
- Response [11]: 1.33
- Response [12]: 1.15
- Response [13]: 0.306
- Response [14]: 0.694
- Response [15]: 0.473
- Response [16]: 0.948
- Kd [10]: 0.222 µM
- koff [10]: 0.00902 s⁻¹
- kon [10]: 40700 M⁻¹ s⁻¹

B6: CM26, His-tagged (designed binder)
chain: MHHHHHHGGSGMLIFVKTLTGKMITLEVEPSDTIENVKAKIQDHEGIPPDQQRLAFQGKSLEDGRTLSDYNILKDSKLMPLLRLR
- Response [11]: 1.07
- Response [12]: 0.956
- Response [13]: 0.298
- Response [14]: 0.63
- Response [15]: 0.442
- Response [16]: 0.821
- Kd [10]: 0.123 µM
- koff [10]: 0.0167 s⁻¹
- kon [10]: 136000 M⁻¹ s⁻¹

B7: i53 with N-terminal His tag and short flexible linker (designed binder)
chain: MHHHHHHGGSGMLIFVKTLTGKTITLEVEPSDTIENVKAKIQDKEGIPPDQQRLAFAGKSLEDGRTLSDYNILKDSKLHPLLRLR
- Response [3]: 0.126
- Response [4]: 0.221
- Response [5]: 0.0627
- Response [6]: 0.0221
- Response [7]: 0.574
- Response [8]: 0.0006
- Kd [17]: 3.08 µM
- Response [9]: 0.34
- Kd [18]: 3.87 µM
- koff [18]: 0.0892 s⁻¹
- kon [18]: 23000 M⁻¹ s⁻¹
- Kd [10]: 5.92 µM
- koff [10]: 0.0887 s⁻¹
- kon [10]: 15000 M⁻¹ s⁻¹

B8: i53 T14E, His-tagged (designed binder)
chain: MHHHHHHGGSGMLIFVKTLTGKTIELEVEPSDTIENVKAKIQDKEGIPPDQQRLAFAGKSLEDGRTLSDYNILKDSKLHPLLRLR
- Response [3]: 0.224
- Response [4]: 0.333
- Response [5]: 0.123
- Response [6]: 0.0571
- Response [7]: 0.666
- Response [8]: 0.0223
- Response [9]: 0.462
- Kd [10]: 2.11 µM
- koff [10]: 0.0702 s⁻¹
- kon [10]: 33300 M⁻¹ s⁻¹

B9: i53 S65P, His-tagged (designed binder)
chain: MHHHHHHGGSGMLIFVKTLTGKTITLEVEPSDTIENVKAKIQDKEGIPPDQQRLAFAGKSLEDGRTLSDYNILKDPKLHPLLRLR
- Response [3]: 0.252
- Response [4]: 0.361
- Response [5]: 0.143
- Response [6]: 0.069
- Response [7]: 0.716
- Response [8]: 0.0384
- Response [9]: 0.508
- Kd [10]: 2.09 µM
- koff [10]: 0.0514 s⁻¹
- kon [10]: 24600 M⁻¹ s⁻¹

B10: i53 K63I, His-tagged (designed binder)
chain: MHHHHHHGGSGMLIFVKTLTGKTITLEVEPSDTIENVKAKIQDKEGIPPDQQRLAFAGKSLEDGRTLSDYNILIDSKLHPLLRLR
- Response [3]: 0.242
- Response [4]: 0.374
- Response [5]: 0.14
- Response [6]: 0.0623
- Response [7]: 0.797
- Response [8]: 0.0324
- Response [9]: 0.526
- Kd [10]: 2.87 µM
- koff [10]: 0.0546 s⁻¹
- kon [10]: 19000 M⁻¹ s⁻¹

B11: i53 K33A, His-tagged (designed binder)
chain: MHHHHHHGGSGMLIFVKTLTGKTITLEVEPSDTIENVKAKIQDAEGIPPDQQRLAFAGKSLEDGRTLSDYNILKDSKLHPLLRLR
- Response [3]: 0.325
- Response [4]: 0.48
- Response [5]: 0.185
- Response [6]: 0.0935
- Response [7]: 0.96
- Response [8]: 0.0409
- Response [9]: 0.657
- Kd [10]: 2.1 µM
- koff [10]: 0.062 s⁻¹
- kon [10]: 29500 M⁻¹ s⁻¹

B12: CM7, His-tagged (designed binder)
chain: MHHHHHHGGSGMLIFVRTLTGKTITLEVEPSDTIENVKAKIQDHEGIPPDQQRLAFQGKSLEDGRTLSDYNILKDPKLHPLLRLR
- Response [11]: 1.14
- Response [12]: 0.989
- Kd [19]: 0.392 µM
- Response [13]: 0.251
- Response [14]: 0.589
- Kd [20]: 0.297 µM
- koff [20]: 0.00638 s⁻¹
- kon [20]: 21500 M⁻¹ s⁻¹
- Response [15]: 0.402
- Response [16]: 0.8
- Kd [10]: 0.214 µM
- koff [10]: 0.00714 s⁻¹
- kon [10]: 33300 M⁻¹ s⁻¹

B13: CM138-DM (designed binder)
Ubv: MHHHHHHGGSGYLIFVRMLTGKMIELEVMPSDTIEVIKAKIQDHEGIPPDEQRLAFQGTSLDDGRTLGDYNLLIDPKKMLVLRMQ
notes: also called CM199
- binding result [1]: binds

B14: CM1, His-tagged (designed binder)
chain: MHHHHHHGGSGMLIFVRMLTGKMIELEVEPSDTIENVKAKIQDHEGIPPDQQRLAFQGKSLEDGRTLSDYNILKDPKKMPLLRLR
- Response [11]: 1.38
- Response [12]: 1.31
- Response [13]: 0.724
- Response [14]: 1.07
- Kd [21]: 0.064 µM
- Kd [20]: 0.0235 µM
- koff [20]: 0.00254 s⁻¹
- kon [20]: 108000 M⁻¹ s⁻¹
- Response [15]: 0.888
- Response [16]: 1.25
- Kd [10]: 0.021 µM
- koff [10]: 0.00309 s⁻¹
- kon [10]: 147000 M⁻¹ s⁻¹

B15: CM143-DM (designed binder)
Ubv: MHHHHHHGGSGMLIFVRMLTGKMIELEVEPSDTIEVVKAKIQDHEGIPLDEQRLTFQGKLLDDGRTLSDYNLLIDPKKMLVLRLQ
notes: also called CM204
- binding result [1]: binds

B16: CM142-DM (CM203), His-tagged (designed binder)
chain: MHHHHHHGGSGYLIFVRMLTGKMIELEVEPSDTIENIKAKIQDHEGIPLDQQRLTFQGKLLEDGRTLSDYNLLIDPKKMLVLRMQ
- binding result [1]: binds

B17: CM147-DM (designed binder)
Ubv: MHHHHHHGGSGMLIFVRMLTGKMIELEVMPSDTIEVVKAKIQDHEGIPLDQQHLTFQGTLLEDGYTLGDYNLLIDPKKMLVLRLQ
notes: also called CM208
- binding result [1]: binds
